Measured values taken from the BET-seq Pho4 binding data (Le et al. 2018).
This is one part of the list. The energies were worked out here from pooled read counts, against the library average; single values are noisy.

Molecular target: T1, Pho4 (S. cerevisiae) (UniProt P07270)
T1 sequence: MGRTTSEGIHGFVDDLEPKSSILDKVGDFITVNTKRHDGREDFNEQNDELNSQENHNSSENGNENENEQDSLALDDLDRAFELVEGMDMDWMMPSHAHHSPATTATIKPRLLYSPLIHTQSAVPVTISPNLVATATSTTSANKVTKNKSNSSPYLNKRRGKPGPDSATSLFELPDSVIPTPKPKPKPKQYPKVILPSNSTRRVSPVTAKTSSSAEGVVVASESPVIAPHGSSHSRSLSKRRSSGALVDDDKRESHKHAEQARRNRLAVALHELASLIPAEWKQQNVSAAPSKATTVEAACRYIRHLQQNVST
Assay: relative binding free energy (BET-seq); higher = weaker binding
Details: reference: library average

| Sequence | relative binding free energy |
| --- | --- |
| CCTGGCACGTGTAGGG | 0 kcal/mol |
| TGAATCACGTGTAGTA | 0.39 kcal/mol |
| AAGCACACGTGAGGGT | 0.27 kcal/mol |
| CGCTGCACGTGCGGGT | -0.04 kcal/mol |
| ATGGTCACGTGGCAAG | 0.1 kcal/mol |
| TGGAACACGTGCGGGA | 0.13 kcal/mol |
| CGATTCACGTGGTGGT | 0.19 kcal/mol |
| GGGATCACGTGGATAA | 0.22 kcal/mol |
| AATAACACGTGAGGTT | 0.14 kcal/mol |
| TTTTACACGTGGGGGA | 0 kcal/mol |
| GAATGCACGTGGAGTT | 0.17 kcal/mol |
| CAAGTCACGTGTTAGT | 0.11 kcal/mol |
| TAATTCACGTGCTTAG | 0.19 kcal/mol |
| AGGCGCACGTGGAAGG | -0.06 kcal/mol |
| GTTTTCACGTGTTTCC | 0.27 kcal/mol |
| TATCGCACGTGTGTTT | -0.06 kcal/mol |
| CGGGGCACGTGCGCGG | -0.28 kcal/mol |
| TGTAACACGTGTAACT | 0.1 kcal/mol |
| GTATTCACGTGTAACG | 0.34 kcal/mol |
| TAGCTCACGTGTGGAG | 0.44 kcal/mol |
| ATTTACACGTGAGATG | 0.38 kcal/mol |
| TCATTCACGTGGTATA | 0.19 kcal/mol |
| ACAGGCACGTGGGGTT | -0.23 kcal/mol |

| Sequence | relative binding free energy |
| --- | --- |
| GGGTTCACGTGTCGTC | 0.39 kcal/mol |
| AGTCTCACGTGTGAGG | 0.22 kcal/mol |
| TATGTCACGTGATCTT | 0.02 kcal/mol |
| GATATCACGTGGTATT | 0.05 kcal/mol |
| AGTAACACGTGTAATT | 0.05 kcal/mol |
| TTAATCACGTGAAATT | 0.29 kcal/mol |
| ATTTTCACGTGGAAGA | 0.32 kcal/mol |
| CCGGGCACGTGGGTGT | -0.22 kcal/mol |
| ATATTCACGTGTGACT | 0.31 kcal/mol |
| AGGACCACGTGGGGGA | -0.32 kcal/mol |
| CGTGACACGTGGGGTG | -0.22 kcal/mol |
| TATATCACGTGGGGTC | -0.05 kcal/mol |
| ATCGGCACGTGTGGAG | 0.15 kcal/mol |
| GGATTCACGTGTTTCA | 0.43 kcal/mol |
| ATTCTCACGTGAGGGT | 0.3 kcal/mol |
| TAGAACACGTGTCGGG | 0.09 kcal/mol |
| GGGGGCACGTGAGCAA | 0.09 kcal/mol |
| GGGGGCACGTGGGATG | -0.14 kcal/mol |
| CTAGGCACGTGTGGTG | -0.09 kcal/mol |
| CTTTTCACGTGGTCAT | 0.12 kcal/mol |
| TAAGTCACGTGAGGCC | 0.33 kcal/mol |
| GGTGCCACGTGAGGGA | 0.06 kcal/mol |
| CATGGCACGTGGAATT | 0.08 kcal/mol |

| Sequence | relative binding free energy |
| --- | --- |
| GAGTGCACGTGTTAGG | -0.01 kcal/mol |
| GGCGTCACGTGATGTA | 0.21 kcal/mol |
| CTGGGCACGTGACGGT | 0 kcal/mol |
| ACCTGCACGTGGGTTG | -0.11 kcal/mol |
| ATTGCCACGTGAGGTA | 0.08 kcal/mol |
| GGTTACACGTGGCTTT | 0.07 kcal/mol |
| GCGCGCACGTGATTGG | 0.15 kcal/mol |
| GTCCTCACGTGGGATG | 0.22 kcal/mol |
| GTGGCCACGTGGGGAT | -0.12 kcal/mol |
| CCTTGCACGTGGTGGT | -0.09 kcal/mol |
| AGTAGCACGTGGTTTT | -0.08 kcal/mol |
| GGGGCCACGTGGATTT | 0.08 kcal/mol |
| TGCGACACGTGGGTAA | -0.11 kcal/mol |
| ATACGCACGTGTGTTT | -0.11 kcal/mol |
| GGAAGCACGTGGCGAG | -0.09 kcal/mol |
| GTACGCACGTGTAGGA | -0.03 kcal/mol |
| GGTGTCACGTGCGGAA | 0.01 kcal/mol |
| TTCAACACGTGTAGTA | 0.14 kcal/mol |
| GGGTCCACGTGAAGGT | 0.38 kcal/mol |
| TCTGTCACGTGTATTT | 0.07 kcal/mol |
| GGGCGCACGTGAAGAG | 0.21 kcal/mol |
| GCGTGCACGTGTGGAG | 0.03 kcal/mol |
| TTAGTCACGTGAGTGT | 0.37 kcal/mol |

| Sequence | relative binding free energy |
| --- | --- |
| AGATGCACGTGGAGTT | -0.07 kcal/mol |
| AGGGTCACGTGGAAAG | 0.17 kcal/mol |
| GGTAGCACGTGAAGTT | 0.24 kcal/mol |
| GTGTACACGTGTGTGG | 0.06 kcal/mol |
| ATAAACACGTGTATGT | -0.14 kcal/mol |
| GTAGACACGTGAGGTT | 0.19 kcal/mol |
| GACATCACGTGTTGTT | 0.15 kcal/mol |
| AGGTTCACGTGGCCTG | 0.07 kcal/mol |
| ATAGTCACGTGTCTTT | 0.21 kcal/mol |
| GTTTGCACGTGAGCTG | 0.18 kcal/mol |
| AATAGCACGTGAATAG | 0.32 kcal/mol |
| ATGTCCACGTGGGCGT | -0.12 kcal/mol |
| TCTATCACGTGTTTTA | 0.15 kcal/mol |
| AGCTTCACGTGGGGTT | -0.04 kcal/mol |
| GGCAGCACGTGGGTTT | -0.16 kcal/mol |
| TGCTGCACGTGATGGC | 0.08 kcal/mol |
| TGAAGCACGTGGGTAT | -0.25 kcal/mol |
| AAGTTCACGTGTTGGC | 0.22 kcal/mol |
| TTTCTCACGTGATGGT | 0.26 kcal/mol |
| ATGGACACGTGGTGTC | -0.01 kcal/mol |
| GAGTTCACGTGTGACG | 0.45 kcal/mol |
| TGGATCACGTGGGTAG | 0.1 kcal/mol |
| GGTAGCACGTGGATCT | 0.01 kcal/mol |

| Sequence | relative binding free energy |
| --- | --- |
| TTGCGCACGTGAATTT | 0.31 kcal/mol |
| ATGGACACGTGGGCGA | -0.04 kcal/mol |
| GTGTACACGTGGTACG | 0.05 kcal/mol |
| TCAATCACGTGGTGTT | 0.17 kcal/mol |
| ACTGTCACGTGGAGTT | 0.15 kcal/mol |
| ATGCACACGTGGTGGT | -0.01 kcal/mol |
| GTTCGCACGTGTGGTA | 0.08 kcal/mol |
| TGGAGCACGTGGTCTT | -0.15 kcal/mol |
| TTGGGCACGTGTTCCG | -0.06 kcal/mol |
| TGTATCACGTGTACGG | 0.11 kcal/mol |
| TCTGTCACGTGCAGGT | 0.12 kcal/mol |
| TTTATCACGTGTGCTT | 0.24 kcal/mol |
| GGAGACACGTGGGCGA | -0.03 kcal/mol |
| GGCTGCACGTGTCTTG | -0.01 kcal/mol |
| TTAGACACGTGGGTAG | -0.01 kcal/mol |
| CTTTTCACGTGACAGG | 0.52 kcal/mol |
| TTGGTCACGTGTGGTG | 0.08 kcal/mol |
| TTTGGCACGTGTGGAG | -0.03 kcal/mol |
| AATTGCACGTGTAGGC | 0.03 kcal/mol |
| GTGGTCACGTGTTTGA | 0.15 kcal/mol |
| CTTTTCACGTGGATTG | 0.22 kcal/mol |
| AAGCGCACGTGATGGG | -0.06 kcal/mol |
| CTGTGCACGTGGTAGC | -0.11 kcal/mol |
